# Source: PMC4336329 (PLoS ONE, 2015)
# In all, about 310,000 compounds went through this assay and about 14,000 (4.5%) showed an effect of 50% or more. Effects have a minus sign here. The list shows a part of the results.
# Molecular target: human ether-à-go-go-related gene (hERG) potassium channel (human, UniProt Q12809)
# Experiment: primary screen, population patch clamp on CHO cells stably expressing hERG
# 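Further: peak tail current of the secondary pulse compared with the same well before compound.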
# Chain of human ether-à-go-go-related gene (hERG) potassium channel (Q12809 whole entry, looked up): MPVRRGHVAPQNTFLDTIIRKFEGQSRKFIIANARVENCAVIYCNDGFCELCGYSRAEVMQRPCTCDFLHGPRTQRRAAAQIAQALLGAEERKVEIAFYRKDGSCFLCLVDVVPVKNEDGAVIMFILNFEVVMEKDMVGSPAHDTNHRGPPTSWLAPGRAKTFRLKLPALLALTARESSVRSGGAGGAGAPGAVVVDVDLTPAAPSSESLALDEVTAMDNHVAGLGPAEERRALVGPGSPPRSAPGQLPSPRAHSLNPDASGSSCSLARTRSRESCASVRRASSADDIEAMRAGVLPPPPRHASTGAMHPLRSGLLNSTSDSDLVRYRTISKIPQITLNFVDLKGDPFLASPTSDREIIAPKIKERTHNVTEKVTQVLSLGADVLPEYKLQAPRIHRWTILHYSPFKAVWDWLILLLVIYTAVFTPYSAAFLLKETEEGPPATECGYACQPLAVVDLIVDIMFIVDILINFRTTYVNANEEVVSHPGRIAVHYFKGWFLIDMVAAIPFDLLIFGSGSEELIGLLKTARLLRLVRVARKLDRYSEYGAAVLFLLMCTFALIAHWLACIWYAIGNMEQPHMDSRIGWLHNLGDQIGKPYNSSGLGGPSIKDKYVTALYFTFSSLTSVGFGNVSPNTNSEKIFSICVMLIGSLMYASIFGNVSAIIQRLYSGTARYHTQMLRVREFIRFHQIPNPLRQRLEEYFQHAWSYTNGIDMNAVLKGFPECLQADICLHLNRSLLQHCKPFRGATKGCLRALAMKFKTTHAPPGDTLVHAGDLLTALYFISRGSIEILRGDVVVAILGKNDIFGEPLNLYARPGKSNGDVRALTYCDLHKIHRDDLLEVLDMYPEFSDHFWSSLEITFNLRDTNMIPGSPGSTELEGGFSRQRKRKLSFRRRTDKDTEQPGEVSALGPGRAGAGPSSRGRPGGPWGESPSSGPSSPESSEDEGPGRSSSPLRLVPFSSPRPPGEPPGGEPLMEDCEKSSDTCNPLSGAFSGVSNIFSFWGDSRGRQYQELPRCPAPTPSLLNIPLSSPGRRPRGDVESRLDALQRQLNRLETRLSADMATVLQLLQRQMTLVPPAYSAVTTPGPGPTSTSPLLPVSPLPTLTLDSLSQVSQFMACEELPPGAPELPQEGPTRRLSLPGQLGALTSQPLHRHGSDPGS
row,SMILES,"hERG current change (%, negative = inhibition) at 10uM [%]"
1,Cc1cc(C)c(C(=O)COC(=O)Cn2c(C)csc2=O)cc1C,8.61
2,Fc1ccccc1CCNc1c2c(nc3ncnn13)CCCC2,-17.4
3,C=CCNC(=S)Nc1sc2c(c1C(N)=O)CCCC2,1.2
4,CCOC(=O)C1=C(C)N(c2ccc(OC)cc2)C(=O)/C1=C\c1cccs1,-5.96
5,O=C(/C(=C/c1ccc(Cl)cc1)c1nc2ccccc2[nH]1)c1ccccc1,7.41
6,CCOC(=O)Cn1nnnc1CN(CCc1ccccc1)Cc1cc2cc(CC)ccc2[nH]c1=O,-4.43
7,COc1ccc(S(=O)(=O)N2CCCCC2)cc1NC(=O)[C@@H]1CCCN1C(=O)c1cccs1,-18.9
8,CCOC(=O)N1CCN(S(=O)(=O)c2ccc(F)c(C(=O)Nc3ccc(C)c(Cl)c3)c2)CC1,-13.5
9,C#CCOc1coc(COC(=O)c2ccccc2)cc1=O,-9.45
10,CN(C)C(=O)CSc1ncnc2scc(-c3ccccc3)c12,-9.31
11,CCOC(=O)c1ccc(N2C(=O)CC(Sc3nc(C)cc(C)n3)C2=O)cc1 (centres unmarked),13.9
12,CNC(=S)N/N=C/c1cn(Cc2ccc(F)cc2)c2ccccc12,-4.59
13,Cc1cc(=O)c(C(=O)O)nn1-c1ccccc1C(F)(F)F,4.67
14,N#Cc1ccccc1OCC(=O)Nc1cccc(S(=O)(=O)N2CCCCCC2)c1,-25.2
15,Cc1cc(C)nc(/N=C(\N)Nc2ccc(OCCC(C)C)cc2)n1,-71.8
16,Cc1c(C(=O)Nc2nnc(C(F)(F)F)s2)oc2ccccc12,13.1
17,COCC(=O)N(CCc1ccc(OC)c(OC)c1)Cc1cc2cc(C)ccc2nc1Cl,-15.9
18,O=Cc1cn(CCOc2ccccc2)c2ccccc12,4.98
19,Cc1ccc(-n2c(SCc3ccc(C(=O)O)cc3)nnc2-c2ccncc2)cc1,4.15
20,CCCn1nnc(NCc2ccc(OCc3cccs3)c(OC)c2)n1,3.16
21,O=C(CSc1ncc(-c2ccccc2)n1C1CCCC1)N1CCc2ccccc21,-1.34
22,O=C(C1CC1)N1N=C(c2ccccc2)CC1(O)C(F)(F)F (centres unmarked),13.2

row,SMILES,"hERG current change (%, negative = inhibition) at 10uM [%]"
1,COCCNC(=O)c1ccc2c(c1)nc(C)n2-c1cc(OC)c(OC)c(OC)c1,3.81
2,CCCCNC(=O)C1(NC(=O)Nc2ccccc2)CCCCC1,-2.54
3,CC(C)[C@H](NC(=O)OCc1ccccc1)C(=O)OCC(=O)NCCc1ccccc1,-37
4,CCCC(=O)Nc1nc2ccc(OCC)cc2s1,2.2
5,O=C(CN1C(=O)NC2(CCCCCC2)C1=O)N1CCN(S(=O)(=O)c2ccc(Cl)cc2)CC1,-23.9
6,O=C(Nc1ccccc1N1CCCC1)C1=COCCO1,-8.32
7,CC(C)C(=O)Nc1ccc(NC(=O)c2ccc(COc3ccccc3)cc2)cc1,16.3
8,COc1ccc(-n2cnnc2SCC(=O)Nc2cc(S(=O)(=O)N3CCCCC3)ccc2C)cc1,-84
9,COc1ccc(-c2nn(C)c(=O)c3ccccc23)cc1CNC(=O)NC1CCCCC1,-26.5
10,COc1ccc(-c2csc(Nc3ncccc3C)n2)cc1OC,-3.62
11,CCOc1cc(S(=O)(=O)NCc2ccc3c(c2)OCO3)c(C)cc1C,-8.62
12,CCCCC(=O)NC(Nc1cc(C)ccn1)(C(=O)OCC)C(F)(F)F (centres unmarked),2.5
13,C/C(=N\NC(=O)CCCCCNC(=O)c1ccccc1)c1ccccc1O,-5.61
14,COc1ccc(-c2ccc(OC)c([C@H]3[C@H]4C=CC[C@@H](C)[C@@H]4C(=O)N3Cc3ccccc3)c2)cc1C,11.8
15,COc1ccccc1N1CCN(S(=O)(=O)c2ccc(NC(C)=O)cc2)CC1,-22.7
16,CC(=O)Nc1ccc(S(=O)(=O)N(C)c2ccc(O)cc2)cc1,2.53
17,CC(=O)c1ccccc1OCCCCN1CCCCC1.O=C(O)C(=O)O,-59.5
18,CCCCN1CC(=O)N2[C@H]3c4cc(Br)ccc4OC[C@@H]3[C@H](C(=O)OCC)[C@]2(C)C1=O,-21.9
19,COc1cc(-c2nnc(NC(=O)c3ccco3)o2)cc(OC)c1OC,-2.51
20,CCOC(=O)c1c(C)oc2ccc(OC(=O)N3CCOCC3)cc12,-16.1
21,CCOc1ccc(N(C(=O)CNC(=O)c2cccs2)C(C(=O)NCC2CCCO2)c2ccc(OC)c(OC)c2)cc1 (centres unmarked),-5.73
22,CC1CN(C(=O)COC(=O)c2ccc(Cl)nc2)CC(C)O1 (centres unmarked),6.41
